The assay is described as follows: Intensity of mechanical hypernociception (electronic von Frey) in CCI or sham rats after chronic morphine or saline.

“And” between values parts separate entries of the source, which are not always exact repeats. Equal entries are not always repeated.

For the compound `CCOC(=O)C1=C(C)NC2=C(C=Nc3ccccc3N2)C1c1ccccc1[N+](=O)[O-]` (centres unmarked) [JM-20, 3-ethoxycarbonyl-2-methyl-4-(2-nitrophenyl)-4,11-dihydro-1H-pyrido [2,3-b] [1,5] benzodiazepine], the “Intensity of mechanical hypernociception, difference (Δ) of the withdrawal threshold” value is 17.18±3.35 grams (CCI rats, morphine 10 mg/kg s/c every 12 hours for 4 days + JM-20 10 mg/kg p.o. for 5 days, day 11 post-surgery); 16.40±3.8 grams and 16.40±3.82 grams (CCI rats, morphine 10 mg/kg s/c every 12 hours for 4 days + JM-20 10 mg/kg p.o. for 5 days, day 23 post-surgery, 12 days after discontinuation).

Take `CN1CC[C@]23c4c5ccc(O)c4O[C@H]2[C@@H](O)C=C[C@H]3[C@H]1C5` [morphine, reference compound]: the “Intensity of mechanical hypernociception, difference (Δ) of the withdrawal threshold” value is, setting by setting: (CCI rats, morphine 10 mg/kg s/c every 12 hours for 4 days (vehicle p.o.), day 11 post-surgery, 19 hours after last morphine) 45.09±1.60 grams; (CCI rats, morphine 10 mg/kg s/c every 12 hours for 4 days (vehicle p.o.), day 11 post-surgery, 19 hours after last morphine, listed as MOR) 45.09 ± 1.60 grams; (CCI rats, morphine 10 mg/kg s/c every 12 hours for 4 days (vehicle p.o.), day 23 post-surgery) 44.82±1.39 grams and 45.18±1.5 grams; (CCI rats, morphine 10 mg/kg s/c every 12 hours for 4 days (vehicle p.o.), day 23 post-surgery, listed as MOR) 44.82 ± 1.39 grams; (Sham CCI rats, morphine 10 mg/kg s/c every 12 hours for 4 days, day 11 post-surgery) 40.49 ± 2.57 grams; (Sham CCI rats, morphine 10 mg/kg s/c every 12 hours for 4 days, day 23 post-surgery) 37.49 ± 2.10 grams.
